Test results taken from the supplement of paper PMC3334620.
In all, about 33,000 sequences were measured (“E-score (-0.5 to 0.5)”: median about -0.016, highest 2% from about 0.32 on). The list shows a part of the results.

Target: T1, Stp1 (UniProt B3LFK1)
T1 sequence: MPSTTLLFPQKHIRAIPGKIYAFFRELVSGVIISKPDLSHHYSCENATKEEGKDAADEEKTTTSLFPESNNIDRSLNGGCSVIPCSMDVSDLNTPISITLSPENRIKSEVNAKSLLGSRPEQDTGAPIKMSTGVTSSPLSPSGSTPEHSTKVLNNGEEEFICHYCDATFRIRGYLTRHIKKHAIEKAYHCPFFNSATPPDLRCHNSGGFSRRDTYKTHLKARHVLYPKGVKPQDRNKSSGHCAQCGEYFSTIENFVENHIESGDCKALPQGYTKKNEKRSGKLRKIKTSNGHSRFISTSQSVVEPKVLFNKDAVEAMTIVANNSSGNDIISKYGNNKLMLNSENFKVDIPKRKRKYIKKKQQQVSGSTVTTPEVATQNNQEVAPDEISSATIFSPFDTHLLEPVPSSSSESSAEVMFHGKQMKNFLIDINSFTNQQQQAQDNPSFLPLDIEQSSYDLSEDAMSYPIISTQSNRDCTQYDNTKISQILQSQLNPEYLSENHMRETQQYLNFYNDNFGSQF
Assay: PBM E-score (8-mer binding enrichment) (E-score (-0.5 to 0.5)); higher = stronger / more preferred TF binding; most listed sequences are background and not binding sites
Conditions: protein concentration: 200 nM; construct: GST-full length
How it was run: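 Full-length yeast transcription factors or their DNA-binding domains, GST-tagged and expressed with PURExpress, were applied at about 100-200 nM to universal all-10-mer Agilent arrays. These arrays had been made double-stranded by primer extension on fresh or once-stripped slides. Detection used fluorescent anti-GST, normalisation used masliner, and E-scores for ungapped eight-base words pooled with reverse complements came from the Universal PBM Analysis Suite.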

Sequence | PBM E-score
GTAGCTGA | -0.154
ACATTTGG | -0.113
CCCCGTCG | -0.134
AGACACAT | -0.142
AAAAGAAC | 0.0475
CTCGATAA | 0.156
ACTCACAT | -0.103
ATTATTCC | 0.0221
GTGCAAGA | 0.171
ATGTGACG | -0.18
ACCGTTCA | -0.0101
ATGGGTGG | -0.155
ACGCAGAC | -0.0966
CTTTAAGA | -0.0405
GAGCGACA | -0.0788
GCTGAGCA | -0.0706
GAAAGTGC | -0.045
GTTAACCA | 0.145
CACAGTAA | 0.209
GCCCGCCC | -0.0566
GTGAACTA | 0.00375
CTCTCGAA | -0.105
ACAAACTC | 0.0499
AAAAATAC | 0.151
ACCTACGG | -0.16

Sequence | PBM E-score
CGGAAGAG | -0.00742
GGATATGA | -0.0473
GAATTTCC | 0.108
ATCAGGCC | -0.14
GTCATATA | 0.0494
GAGCGCAC | -0.19
AGCTCGAG | -0.232
CGTATACG | 0.115
AACTAGAC | 0.153
AAGTCGGA | -0.0439
AATCAGAT | 0.103
GAAGGAAC | -0.0401
TGCCGCCA | 0.229
ACCAATCG | 0.0932
GTTCCAAC | 0.127
ACTCGCTG | 0.0353
ACCTCAGG | -0.247
AGAATGAC | -0.0818
CTCGCCAG | -0.165
CACCCGGC | -0.0619
GTCCGGAC | -0.0989
CAGTCTTC | -0.154
AAGTGAAT | 0.212
TAGTTACA | -0.013
CAGAGGCG | 0.028

Sequence | PBM E-score
AAGAGTTG | -0.0322
AGTATGCA | -0.0421
GCGGACAA | 0.127
CTCTACCA | -0.0433
AGTAGTGA | -0.0104
AGAGGGAT | -0.214
GGCTATCA | 0.0642
AGGGAGGG | -0.237
CACTCGAA | 0.0341
AGGAATTA | -0.063
CGATCAAA | -0.121
TAACCGCA | 0.0745
CCTCCCCG | -0.0218
AAGAAGTC | -0.0393
AGAAGAGA | -0.0256
ATTTTTCA | 0.116
ATGCTTGG | -0.142
CTACGAGA | -0.132
ATCGATCC | -0.111
CATGCGCG | -0.0347
AACTTCCC | -0.172
GCGACCGA | 0.0544
CAGTTTCG | -0.00824
CTTCTGTA | 0.0992
GGGTTAAA | -0.226

Sequence | PBM E-score
AATGGAGC | 0.046
GGTCCGAC | -0.164
ATCATGGA | -0.201
AACGCACA | -0.0113
GCCGCGGC | 0.474
CGAGCAGA | -0.21
CGAGAAAG | -0.0578
AAGTTTGC | 0.0668
CGCTCTGC | -0.0351
AACTCGTA | 0.00375
CATAGCGG | -0.26
ATTTCCTC | 0.0188
TCGCACGA | -0.0503
GGGACTCA | -0.215
CCGAGGGA | -0.209
GGTGACAC | -0.148
AGGCGCCA | 0.353
CGGGCCCC | -0.122
CAGATTCG | -0.0223
CCAGACCC | -0.314
ACCAGATG | -0.146
AAAAACTT | 0.145
AATAAAAG | 0.0874
CCAAGTCA | -0.138
TCAAGACA | -0.0772

Sequence | PBM E-score
AGTTTGGC | 0.051
CCTGCTCC | 0.0227
AATCATGA | 0.199
CTCGAAAC | 0.113
CAGCTCCA | -0.234
AATACAAG | 0.0957
CCGCCCCC | -0.238
CAGCGGGC | -0.0556
CAAACAGG | -0.0496
CTAATTTC | 0.162
GCGATAGC | -0.0161
TAGAGAAA | 0.0678
CAAATACA | 0.0678
CTGTGGGA | -0.223
GCTTCATA | 0.0285
AAGCAAAA | 0.135
CACACGGG | 0.235
GATCCAAA | 0.169
CCACTGAG | -0.169
TACTACTA | 0.233
AGCACTGG | -0.259
ACAACCAT | 0.182
AGTCCGAG | -0.0371
AGCTCACC | -0.238
CGAATCAG | -0.0712

Sequence | PBM E-score
CTCATCTA | -0.0574
ACACTCGT | -0.0508
AACATTAA | 0.0927
TACCGGGA | -0.175
AGTACAGA | 0.0823
AGATCACC | -0.00473
CGCGATTC | 0.118
ACCGCATC | 0.146
ACTAATGG | 0.0182
GATAGTGC | 0.00653
CAGAGCCG | 0.338
CGGCGCCA | 0.463
ACGCCCCG | 0.0688
CCTGACAC | 0.00556
GATTCAAA | 0.0233
CATCCCAC | -0.186
AGTGTGTA | 0.0491
CACCTTTA | -0.0604
GAGTTATC | -0.0559
ATACCTAG | -0.0659
AAGAGGAG | -0.165
GATTTACC | 0.096
CTAGCTAC | -0.39
ATGGCAAT | 0.066
GACCGGGA | -0.256

Sequence | PBM E-score
GTAATTGA | 0.0867
AACAAGCT | -0.109
GTTTGGGA | 0.0153
ACACCACT | 0.0178
CCACCCGC | -0.142
AATGTCCA | -0.219
CAAATTCA | -0.00383
CCACACGA | -0.105
CGTTTGAG | 0.0843
AAACGAAA | 0.149
AAGCTCAG | -0.185
TAAGCTCA | -0.114
CATAACGC | 0.192
CATAGCGC | 0.163
GAACTTCC | -0.103
TGGTATAA | 0.148
AGATATCA | 0.0553
GATATACC | 0.0955
AAACTTCC | -0.0326
GATGTGAA | 0.112
AACGCGTT | -0.0683
GTTCCCCA | -0.118
